{"source": "patent US11918599B2", "about": "(GliaCellTech Inc., priority 2020, dated 2024)", "key": {"[1]": {"test_system": "wild-type mice", "test": "Y-maze spatial memory after four weeks of didanosine", "assay_type": "in vivo, mouse", "conditions": "WT mice, didanosine 0.5 mg/kg/day i.p., five days per week for four weeks"}, "[2]": {"test_system": "wild-type mice", "test": "Y-maze spatial memory, LPS-injected mice", "conditions": "WT mice, didanosine 5 mg/kg, LPS 0.35 μg/kg, Y-maze 24 hours after didanosine"}, "[3]": {"test_system": "Psen2 N141I KI model mice (KI/+)", "test": "Y-maze spatial memory, LPS-injected mice", "conditions": "didanosine 5 mg/kg"}, "[4]": {"test_system": "5×FAD mice", "test": "Y-maze spatial memory after four weeks of didanosine"}, "[5]": {"test_system": "wild-type mice (WT)", "test": "Serum IL-6 after low-concentration LPS injection (ELISA)", "conditions": "didanosine 5 mg/kg i.p., LPS 0.35 μg/kg i.p. after 4 hours, serum 24 hours after didanosine"}, "[6]": {"test_system": "Psen2 N141I KI model mice (KI/+)", "test": "Serum IL-6 after low-concentration LPS injection (ELISA)", "conditions": "didanosine 5 mg/kg i.p."}}}
{"smiles": "O=c1[nH]cnc2c1ncn2[C@H]1CC[C@@H](CO)O1", "note": "[didanosine, 9-[(2R,5S)-5-(hydroxymethyl)oxolan-2-yl]-1H-purin-6-one]", "values": [{"measurement": "Alternation percent", "setting": "[1]", "result": "76.667 ± 6.489", "unit": "%"}, {"measurement": "Alternation percent", "setting": "[2]", "result": "75.512 ± 5.919", "unit": "%"}, {"measurement": "Alternation percent", "setting": "[3]; KI/+ mice, LPS 0.35 μg/kg, Y-maze 24 hours after didanosine", "result": "75.977 ± 5.160", "unit": "%"}, {"measurement": "Memory performance (in words)", "setting": "[3]; LPS-injected Psen2 N141I KI mice", "result": "recovered the decreased memory performance"}, {"measurement": "Memory decline (in words)", "setting": "[4]; 5×FAD (6 month) mice, didanosine 0.5 mg/kg/day", "result": "recovery from the memory decline"}, {"measurement": "Alternation percent", "setting": "[4]; 6-month-old 5xFAD mice, didanosine 0.5 mg/kg/day i.p., five days per week for four weeks", "result": "68.667 ± 4.096", "unit": "%"}, {"measurement": "IL-6", "setting": "[5]", "result": "312.679 ± 68.423", "unit": "pg/mL"}, {"measurement": "Level of IL-6 oversecreted by neuroinflammation (in words)", "setting": "[6]; LPS 0.35 μg/kg", "result": "remarkably reduce"}, {"measurement": "IL-6", "setting": "[6]; LPS 0.35 μg/kg i.p. after 4 hours, serum 24 hours after didanosine", "result": "297.484 ± 25.155", "unit": "pg/mL"}]}
